Test results taken from PubChem BioAssay (NCI).
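Where inhibition never reached the appropriate level, the endpoint shown equals the highest concentration tested. Otherwise, values were interpolated linearly from a five-concentration, 48-hour dose response in 96-well plates. GI50 = concentration required for 50% inhibition of growth.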 Certain results were filed several times, with different values. They are shown here; other results are not. The source may hold further records. Records of one sample usually come from different ranges of test concentrations, which the source does not state; a value can be the end of its range.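 TGI: concentration producing complete growth inhibition.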

Tests used:
Assay in all cases: DTP human tumour cell line panel, 48 h
[1] = test system: NCI-H460 lung
[2] = test system: OVCAR-5 ovarian
[3] = test system: UACC-257 melanoma
[4] = test system: RXF 393 renal
[5] = test system: COLO 205 colon
[6] = test system: SK-MEL-5 melanoma
[7] = test system: UACC-62 melanoma
[8] = test system: NCI-H522 lung
[9] = test system: TK-10 renal
[10] = test system: HCT-15 colon
[11] = test system: HOP-92 NSCLC
[12] = test system: M14 melanoma
[13] = test system: NCI-H226 lung

## CCc1c2c(nc3cccc(N)c13)-c1cc3c(c(=O)n1C2)COC(=O)[C@]3(O)CC
[1]
  TGI: 1.7 µM and 33.3 nM
[2]
  GI50: 833 nM and 18.1 nM
[3]
  GI50: 295 nM and 21.1 nM
  TGI: 2.94 µM and > 100 µM
[4]
  TGI: 1.46 µM and 20.1 nM
[5]
  TGI: 9.22 µM and > 100 µM
[6]
  TGI: 125 nM and 11.3 nM
[7]
  TGI: 450 nM and 18.7 nM
[8]
  TGI: 1.54 µM and 49.6 nM
[9]
  GI50: 4.37 µM and 64.6 nM
[10]
  GI50: 716 nM and 25.7 nM
[11]
  TGI: 402 nM and 37.8 nM

## CCCCCc1c(C)[nH]c(/C=C2\N=C(c3ccc[nH]3)C=C2Oc2ccc(Cl)cc2)c1C
[12]
  TGI: 1.26 µM and 58.7 nM
[13]
  GI50: 67.9 nM and 811 nM
  TGI: 1.69 µM and > 100 µM
